# In the supplement of paper PMC8728848:
# This is one part of the list.
# B1: CVNH0 (Neurospora crassa), Q7S6U4 (protein)
# chain: GSHIGPYMSFHVTAEDARIEVRDNRTILFARLRREDGEWNDASYELDQIIGNNDGHFQWGGQNFTETAEDIRFHPKEGAAEQPILRARLRDCNGEFHDRDVNLTEIVENVNGEFQAKF
# Columns and labels:
# Assay in all cases: glycan array binding signal (z-score within array); higher = stronger binding
# Conditions in all cases: glycan notation: IUPAC condensed, linker removed
# Fuc(a1-2)Gal = biological target: Fuc(a1-2)Gal
# Summary of the method: (§1)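 Glycan array data came from 3228 arrays in the Consortium for Functional Glycomics database, and only arrays with an available protein sequence were kept. Glycan names were put into IUPAC-condensed notation, and columns mapping to the same glycan were averaged. The binding signal is a within-array Z-score, averaged across arrays of one protein sequence run at different concentrations or buffers and across linkers. A negative Z-score can be read as non-binding.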
# Fuc(a1-2)Gal(b1-3)GalNAc = biological target: Fuc(a1-2)Gal(b1-3)GalNAc
# Summary of the method: as §1
# [1] = biological target: Fuc(a1-2)Gal(b1-3)GalNAc(b1-3)Gal
# Summary of the method: as §1
# [2] = biological target: Fuc(a1-2)Gal(b1-3)GalNAc(b1-3)Gal(a1-4)Gal(b1-4)Glc
# Summary of the method: as §1
# [3] = biological target: Fuc(a1-2)Gal(b1-3)GalNAc(b1-3)Gal(b1-4)Glc
# Summary of the method: as §1
# [4] = biological target: Fuc(a1-2)Gal(b1-3)GalNAc(b1-4)[Neu5Ac(a2-3)]Gal(b1-4)Glc
# Summary of the method: as §1
# [5] = biological target: Fuc(a1-2)Gal(b1-3)[Fuc(a1-4)]GlcNAc
# Summary of the method: as §1
# Fuc(a1-2)Gal(b1-4)Glc = biological target: Fuc(a1-2)Gal(b1-4)Glc
# Summary of the method: as §1
# Fuc(a1-2)Gal(b1-4)GlcNAc = biological target: Fuc(a1-2)Gal(b1-4)GlcNAc
# Summary of the method: as §1
# [6] = biological target: Fuc(a1-2)Gal(b1-4)GlcNAc(b1-3)Gal(b1-4)GlcNAc
# Summary of the method: as §1
# [7] = biological target: Fuc(a1-2)Gal(b1-4)GlcNAc(b1-3)Gal(b1-4)GlcNAc(b1-3)Gal(b1-4)GlcNAc
# Summary of the method: as §1
# [8] = biological target: Fuc(a1-2)Gal(b1-4)[Fuc(a1-3)]GalNAc(b1-3)Gal(b1-4)[Fuc(a1-3)]GlcNAc
# Summary of the method: as §1
# [9] = biological target: Fuc(a1-2)Gal(b1-4)[Fuc(a1-3)]GalNAc(b1-3)Gal(b1-4)[Fuc(a1-3)]GlcNAc(b1-3)Gal(b1-4)[Fuc(a1-3)]GalNAc
# Summary of the method: as §1
# [10] = biological target: Fuc(a1-2)Gal(b1-4)[Fuc(a1-3)]GlcNAc
# Summary of the method: as §1
# Fuc(a1-2)GlcNAc = biological target: Fuc(a1-2)GlcNAc
# Summary of the method: as §1
# Fuc(a1-2)[Gal(a1-3)]Gal = biological target: Fuc(a1-2)[Gal(a1-3)]Gal
# Summary of the method: as §1
# [11] = biological target: Fuc(a1-2)[Gal(a1-3)]Gal(b1-3)GlcNAc
# Summary of the method: as §1
# [12] = biological target: Fuc(a1-2)[Gal(a1-3)]Gal(b1-4)Glc
# Summary of the method: as §1
# [13] = biological target: Fuc(a1-2)[Gal(a1-3)]Gal(b1-4)GlcNAc
# Summary of the method: as §1
# [14] = biological target: Fuc(a1-2)[Gal(a1-3)]Gal(b1-4)[Fuc(a1-3)]GlcNAc
# Summary of the method: as §1
# [15] = biological target: Fuc(a1-2)[Gal(a1-4)]Gal(b1-4)GalNAc
# Summary of the method: as §1
# [16] = biological target: Fuc(a1-2)[GalNAc(a1-3)]Gal
# Summary of the method: as §1
# [17] = biological target: Fuc(a1-2)[GalNAc(a1-3)]Gal(b1-3)GlcNAc
# Summary of the method: as §1
# [18] = biological target: Fuc(a1-2)[GalNAc(a1-3)]Gal(b1-4)Glc
# Summary of the method: as §1
# [19] = biological target: Fuc(a1-2)[GalNAc(a1-3)]Gal(b1-4)GlcNAc
# Summary of the method: as §1
# [20] = biological target: Fuc(a1-2)[GalNAc(a1-3)]Gal(b1-4)[Fuc(a1-3)]GlcNAc
# Summary of the method: as §1
# [21] = biological target: Fuc(a1-2)[GalNAc(a1-4)]Gal(b1-4)GlcNAc
# Summary of the method: as §1
# Fuc(a1-3)GlcNAc = biological target: Fuc(a1-3)GlcNAc
# Summary of the method: as §1
# [22] = biological target: Fuc(a1-3)[Gal(b1-4)]GlcNAc
# Summary of the method: as §1
# [23] = biological target: Fuc(a1-3)[Gal(b1-4)]GlcNAc(b1-4)Gal(b1-4)[Fuc(a1-3)]GlcNAc
# Summary of the method: as §1
# [24] = biological target: Fuc(a1-3)[Gal(b1-4)]GlcNAc(b1-4)Gal(b1-4)[Fuc(a1-3)]GlcNAc(b1-4)Gal(b1-4)[Fuc(a1-3)]GlcNAc
# Summary of the method: as §1
# [25] = biological target: Fuc(a1-3)[Gal3S(b1-4)]GlcNAc
# Summary of the method: as §1
# [26] = biological target: Fuc(a1-3)[GalNAc(b1-4)]Gal(b1-4)GlcNAc
# Summary of the method: as §1
# Fuc(a1-4)GlcNAc = biological target: Fuc(a1-4)GlcNAc
# Summary of the method: as §1
# Fuc(b1-3)GlcNAc = biological target: Fuc(b1-3)GlcNAc
# Summary of the method: as §1
# Gal(a1-2)Gal = biological target: Gal(a1-2)Gal
# Summary of the method: as §1
# Gal(a1-3)Gal = biological target: Gal(a1-3)Gal
# Summary of the method: as §1
# Gal(a1-3)Gal(b1-3)Glc = biological target: Gal(a1-3)Gal(b1-3)Glc
# Summary of the method: as §1
# Gal(a1-3)Gal(b1-3)GlcNAc = biological target: Gal(a1-3)Gal(b1-3)GlcNAc
# Summary of the method: as §1
# Gal(a1-3)Gal(b1-4)GlcNAc = biological target: Gal(a1-3)Gal(b1-4)GlcNAc
# Summary of the method: as §1
# [27] = biological target: Gal(a1-3)Gal(b1-4)[Fuc(a1-3)]GalNAc
# Summary of the method: as §1
# Gal(a1-3)GlcNAc = biological target: Gal(a1-3)GlcNAc
# Summary of the method: as §1
# [28] = biological target: Gal(a1-3)[Gal(a1-4)]Gal(b1-4)GlcNAc
# Summary of the method: as §1
# Gal(a1-4)Gal(b1-4)Gal = biological target: Gal(a1-4)Gal(b1-4)Gal
# Summary of the method: as §1
# Gal(a1-4)Gal(b1-4)GalNAc = biological target: Gal(a1-4)Gal(b1-4)GalNAc
# Summary of the method: as §1
# Gal(a1-4)GlcNAc = biological target: Gal(a1-4)GlcNAc
# Summary of the method: as §1
# Gal(a1-6)Glc = biological target: Gal(a1-6)Glc
# Summary of the method: as §1
# Gal(b1-2)Gal = biological target: Gal(b1-2)Gal
# Summary of the method: as §1
# Gal(b1-3)Gal = biological target: Gal(b1-3)Gal
# Summary of the method: as §1
# Gal(b1-3)GalNAc = biological target: Gal(b1-3)GalNAc
# Summary of the method: as §1
# [29] = biological target: Gal(b1-3)GalNAc(b1-3)Gal(a1-4)Gal(b1-4)Glc
# Summary of the method: as §1
# [30] = biological target: Gal(b1-3)GalNAc(b1-3)Gal(b1-4)Glc
# Summary of the method: as §1
# [31] = biological target: Gal(b1-3)GalNAc(b1-3)Gal(b1-4)GlcNAc
# Summary of the method: as §1
# [32] = biological target: Gal(b1-3)GalNAc(b1-4)Gal(b1-4)Glc
# Summary of the method: as §1
# [33] = biological target: Gal(b1-3)GalNAc(b1-4)[Neu5Ac(a2-3)]Gal(b1-4)Glc
# Summary of the method: as §1
# [34] = biological target: Gal(b1-3)[Fuc(a1-4)]GlcNAc
# Summary of the method: as §1
# [35] = biological target: Gal(b1-3)[Fuc(a1-4)]GlcNAc(b1-3)Gal(b1-4)GlcNAc
# Summary of the method: as §1
# [36] = biological target: Gal(b1-3)[Fuc(a1-4)]GlcNAc(b1-3)Gal(b1-4)[Fuc(a1-3)]GlcNAc
# Summary of the method: as §1
# [37] = biological target: Gal(b1-3)[GlcNAc(b1-6)]GalNAc
# Summary of the method: as §1
# [38] = biological target: Gal(b1-3)[GlcNAc(b1-6)]GlcNAc
# Summary of the method: as §1
binder,measurement,setting,value
B1,glycan array binding signal (z-score),Fuc(a1-2)Gal,-0.372
same,glycan array binding signal (z-score),Fuc(a1-2)Gal(b1-3)GalNAc,-0.418
same,glycan array binding signal (z-score),[1],-0.416
same,glycan array binding signal (z-score),[2],0.803
same,glycan array binding signal (z-score),[3],3.75
same,glycan array binding signal (z-score),[4],-0.373
same,glycan array binding signal (z-score),[5],0.342
same,glycan array binding signal (z-score),Fuc(a1-2)Gal(b1-4)Glc,-0.438
same,glycan array binding signal (z-score),Fuc(a1-2)Gal(b1-4)GlcNAc,-0.425
same,glycan array binding signal (z-score),[6],-0.449
same,glycan array binding signal (z-score),[7],-0.301
same,glycan array binding signal (z-score),[8],-0.316
same,glycan array binding signal (z-score),[9],-0.045
same,glycan array binding signal (z-score),[10],-0.426
same,glycan array binding signal (z-score),Fuc(a1-2)GlcNAc,-0.422
same,glycan array binding signal (z-score),Fuc(a1-2)[Gal(a1-3)]Gal,-0.353
same,glycan array binding signal (z-score),[11],-0.435
same,glycan array binding signal (z-score),[12],-0.41
same,glycan array binding signal (z-score),[13],0.468
same,glycan array binding signal (z-score),[14],-0.413
same,glycan array binding signal (z-score),[15],-0.39
same,glycan array binding signal (z-score),[16],-0.436
same,glycan array binding signal (z-score),[17],-0.401
same,glycan array binding signal (z-score),[18],-0.321
same,glycan array binding signal (z-score),[19],-0.061
same,glycan array binding signal (z-score),[20],-0.387
same,glycan array binding signal (z-score),[21],-0.417
same,glycan array binding signal (z-score),Fuc(a1-3)GlcNAc,1.07
same,glycan array binding signal (z-score),[22],-0.418
same,glycan array binding signal (z-score),[23],-0.274
same,glycan array binding signal (z-score),[24],-0.407
same,glycan array binding signal (z-score),[25],-0.442
same,glycan array binding signal (z-score),[26],-0.403
same,glycan array binding signal (z-score),Fuc(a1-4)GlcNAc,-0.36
same,glycan array binding signal (z-score),Fuc(b1-3)GlcNAc,-0.424
same,glycan array binding signal (z-score),Gal(a1-2)Gal,-0.423
same,glycan array binding signal (z-score),Gal(a1-3)Gal,-0.358
same,glycan array binding signal (z-score),Gal(a1-3)Gal(b1-3)Glc,-0.42
same,glycan array binding signal (z-score),Gal(a1-3)Gal(b1-3)GlcNAc,-0.415
same,glycan array binding signal (z-score),Gal(a1-3)Gal(b1-4)GlcNAc,-0.421
same,glycan array binding signal (z-score),[27],-0.41
same,glycan array binding signal (z-score),Gal(a1-3)GlcNAc,-0.355
same,glycan array binding signal (z-score),[28],-0.346
same,glycan array binding signal (z-score),Gal(a1-4)Gal(b1-4)Gal,3.18
same,glycan array binding signal (z-score),Gal(a1-4)Gal(b1-4)GalNAc,2.42
same,glycan array binding signal (z-score),Gal(a1-4)GlcNAc,-0.362
same,glycan array binding signal (z-score),Gal(a1-6)Glc,2.87
same,glycan array binding signal (z-score),Gal(b1-2)Gal,-0.103
same,glycan array binding signal (z-score),Gal(b1-3)Gal,-0.354
same,glycan array binding signal (z-score),Gal(b1-3)GalNAc,-0.26
same,glycan array binding signal (z-score),[29],2.29
same,glycan array binding signal (z-score),[30],3.05
same,glycan array binding signal (z-score),[31],-0.433
same,glycan array binding signal (z-score),[32],-0.428
same,glycan array binding signal (z-score),[33],-0.256
same,glycan array binding signal (z-score),[34],-0.427
same,glycan array binding signal (z-score),[35],-0.427
same,glycan array binding signal (z-score),[36],-0.382
same,glycan array binding signal (z-score),[37],-0.259
same,glycan array binding signal (z-score),[38],-0.438
